These results are taken from the supplement of paper PMC10338343.

± gives the standard deviation. The full ranking holds about 3,000 sequences; the median of “pre-steady-state target cleavage rate” is about 0.0079, and the highest 2% start at about 0.2. This is a selection; strong and weak results do not stand in their true shares.

The test system of this test is MILI (PIWIL2) piRISC loaded with piRNA #2 (26 nt). Nature of the test: pre-steady-state target cleavage rate (min^-1); MIWI and MILI are mouse PIWI proteins and EfPiwi is from a freshwater sponge; tags in brackets are library labels; higher = faster piRNA-guided slicing of the target. The conditions noted are these: guide: piRNA #2 5'p-UUAGGUAACCCAGUAGAUCCAGAGGA; auxiliary factor: 500 nM mouse GTSF1. In short, it runs like this:
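The method was Cleave-'n-Seq, in which uncleaved targets from a transcribed, DNA-blocked target RNA library were sequenced after exposure to active affinity-purified piRISC carrying one synthetic guide, with or without GTSF1 partner protein. Reactions contained 0.1 nM library, 1 nM piRISC and, where present, 500 nM GTSF1 in HEPES–potassium acetate buffer at 33 °C for 0–8 or 0–960 min. Reads were normalised to depth and to weakly complementary targets, three trials were pooled, and k3 was capped at 0.0001 min^-1. The pre-steady-state cleavage rate came from a burst-and-steady-state fit.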
For the sequence CUUAAGGUCUGGAUCUACUGGGUUACGAAA, the “pre-steady-state target cleavage rate” value was found to be 0.0388 ± 0.014.
Turning to CUUAAGGAGUGGAUCUACUGGGUUCACCUAA, the “pre-steady-state target cleavage rate” value amounted to 0.0116 ± 0.0061.
For the sequence CUUAAACUCUGGAUCUACUGGGUUACCUAA, the “pre-steady-state target cleavage rate” value is 0.0428 ± 0.013.
Consider CUUAAGGUCUGGAUCUGCUGGGUUACCUAA, for which the “pre-steady-state target cleavage rate” value came out at 0.0379 ± 0.0099.
With CUUAAGCUCUGGAUCUACUGGGUUACUUAA, the “pre-steady-state target cleavage rate” value is 0.0872 ± 0.012.
CUUAAGCUCUGCAACUACUGGGUUACCUAA: the “pre-steady-state target cleavage rate” value came out at 0.0388 ± 0.0098.
In the case of CUUAUCCUCUUGAUCUACUGGGUUACCUAA it was 0.192 ± 0.029; in that of CUUAACCACUGGAUGUACUGGGUUACCUAA, 0.0847 ± 0.016.
In the case of CUUAAGGAGAGGAUCUUCUGGGUUACCUAA it was 0.00554 ± 0.0042; in that of CUUAACCUCACCAUCUACUGGGUUACCUAA, 0.0404 ± 0.02.
As for CUUAAGGAGUGGAUCUACUGGGUCUACCUAA, the “pre-steady-state target cleavage rate” value stood at 0.00823 ± 0.0039.
CUUAACCUCUGGAUCUACUGGGUUAGCUAA: the “pre-steady-state target cleavage rate” value is 0.112 ± 0.022.
With CUUAUCCUCUGGAUCUACAGGGUUACCUUA, the “pre-steady-state target cleavage rate” value was 0.115 ± 0.019.
Regarding CUUAAGGUCUGCGAUCUACUGGGUUACCUAA, the “pre-steady-state target cleavage rate” value was determined as 0.0524 ± 0.012.
Regarding CUUAAGGUCUGGAACAACUGGGUUACCUAA, the “pre-steady-state target cleavage rate” value was found to be 0.0187 ± 0.01.
On to CUUAAGGUCUGGAUUUACUGGGUUACCUAA, for which the “pre-steady-state target cleavage rate” value was found to be 0.0923 ± 0.016.
On to CUUAACGUCUGGAUCUACUGGGUAACCUAA, for which the “pre-steady-state target cleavage rate” value came to 0.0379 ± 0.011.
In the case of CUUAUCCACUGGAUCUACAGGGUUACCUAA it was 0.0952 ± 0.011; in that of CUUAUCACUCUGGAUCUACUGGGUUACCUAA, 0.114 ± 0.03; in that of CUUAAGGAGUGGAUCUAGUGGGUUACCUUA, 0.0138 ± 0.0059.
As to CUUAAGGAGAGGAUCUACAGGGUUACCUAA, the “pre-steady-state target cleavage rate” value amounted to 0.0177 ± 0.0055.
For the sequence CUUAAGGUCUCGAUCAACUGGGUUACCUAA, the “pre-steady-state target cleavage rate” value was found to be 0.0194 ± 0.0077.
In the case of CUUAUCCUCUGGAUCUACUGGGUUACCUUAA it was 0.128 ± 0.026; in that of CUUAAGGACUGGUUCUACAGGGUUACCUAA, 0.044 ± 0.012.
CUUAAGCUCUGCAUCUACUGGGUUUCCUAA: the “pre-steady-state target cleavage rate” value came out at 0.0656 ± 0.022.
As for CUUAUCCUCUUGGAUCUACUGGGUUACCUAA, the “pre-steady-state target cleavage rate” value came to 0.19 ± 0.052.
Consider CUUAAGGUCUCGAUCUUCUGGGUUACCUAA, for which the “pre-steady-state target cleavage rate” value is 0.0355 ± 0.011.
For CUUAACCUCCUGGAUCUACUGGGUUACCUAA, the “pre-steady-state target cleavage rate” value stood at 0.108 ± 0.025.
Regarding CUUAACCUCUGGAUCUACACCGUUACCUAA, the “pre-steady-state target cleavage rate” value came out at 0.00418 ± 0.0037.
In the case of CUUAACCUCUGGAUCUUCUGGGUUACGUAA it was 0.0345 ± 0.012; in that of CUUAAGCUCUGGAUCAACUGGGUUAGCUAA, 0.0277 ± 0.0074; in that of CUUAACCUCUGGAUCUACUGGGUUACCAUA, 0.127 ± 0.027.
In the case of CUUAUCCUCAGGAUCUUCUGGGUUACCUAA, the “pre-steady-state target cleavage rate” value was 0.0611 ± 0.014.
With CUUAAGCUCUGGUUCUUCUGGGUUACCUAA, the “pre-steady-state target cleavage rate” value stood at 0.1 ± 0.023.
Consider CUUAAGGAGUGGAUCUACUGGGUUAUCCUAA, for which the “pre-steady-state target cleavage rate” value worked out at 0.0232 ± 0.0097.
On to CUUAAGCACUGGAUCUACAGGGUUACCUAA, for which the “pre-steady-state target cleavage rate” value was 0.0967 ± 0.015.
With CUUAAGCUCUGCAUCUAGUGGGUUACCUAA, the “pre-steady-state target cleavage rate” value came to 0.0412 ± 0.0092.
Consider CUUAAGCACUGGAUCUACUGGGUUUCCUAA, for which the “pre-steady-state target cleavage rate” value worked out at 0.0938 ± 0.03.
On to CUUAUCCUCUGGUAUCUACUGGGUUACCUAA, for which the “pre-steady-state target cleavage rate” value stood at 1.05 ± 0.33.
As to CUUAAGCUCUGGAUCUACUGGGUUACCUAAA, the “pre-steady-state target cleavage rate” value came to 0.0569 ± 0.014.
For CUUAAGGAGAGGUUCUACUGGGUUACCUAA, the “pre-steady-state target cleavage rate” value worked out at 0.0054 ± 0.0035.
Turning to CUUAACCUCUGGAUCUACUGGGUUCCCUAA, the “pre-steady-state target cleavage rate” value was 0.179 ± 0.071.
For the sequence CUUAAGGUCUGGAUCUUCUGGGUUUCCUAA, the “pre-steady-state target cleavage rate” value came out at 0.0147 ± 0.0052.
Consider CUUAAGGUCUGGUAGUACUGGGUUACCUAA, for which the “pre-steady-state target cleavage rate” value worked out at 0.0114 ± 0.0091.
In the case of CUUAAGGAGUGGAUCUACUGGGGUACCUAA it was 0.0109 ± 0.0048.
In the case of CUUAAGGAGACCUACUACUGGGUACCUAA it was below 0.0001; in that of CUUAAGCUCUGGAAGUACUGGGUUACCUAA, 0.0778 ± 0.015.
For CUUAAGCUCUGCAUCUACUGGGAUACCUAA, the “pre-steady-state target cleavage rate” value was 0.0314 ± 0.011.
In the case of CUUAACCUCUGGAUCUAGUGGGUUACGUAA it was 0.0297 ± 0.01; in that of CUUAAGCUCUGGAUCUACUGGGUAACCUAA, 0.0543 ± 0.014.
On to CUUAAGCUGUGGAUCUACUGGGUUACCUAA, for which the “pre-steady-state target cleavage rate” value is 0.0553 ± 0.018.
For CUUAUCCAGAGGAUCUACUGGGUUACCUAA, the “pre-steady-state target cleavage rate” value amounted to 0.0096 ± 0.0041.
In the case of CUUAUCUCUGGAUCUACUGGGUUACCUAA, the “pre-steady-state target cleavage rate” value was 0.0751 ± 0.02.
In the case of CUUAAGGACUGGAUCUACUGGGUUACCUUAA, the “pre-steady-state target cleavage rate” value was found to be 0.0243 ± 0.014.
In the case of CUUAAGGUCUGGAUGUUCUGGGUUACCUAA it was 0.0416 ± 0.018; in that of CUUAACCUCUGGAUCUACUGGAGUUACCUAA, 0.00448 ± 0.0032; in that of CUUAUCCUGUGCAUCUACUGGGUUACCUAA, 0.194 ± 0.038.
In the case of CUUAACCUGUGGAUCUACAGGGUUACCUAA it was 0.0832 ± 0.013; in that of CUUAACCUCUGAAUCUACUGGGUUACCUAA, 0.0822 ± 0.02.
CUUAUCCUCUGGAUCUACUGCGUUACGUAA: the “pre-steady-state target cleavage rate” value was found to be 0.00432 ± 0.0032.
As for CUUAACCUCUGGAUCUACUGGGUUACAUAA, the “pre-steady-state target cleavage rate” value was found to be 0.084 ± 0.018.
Turning to CUUAUCCUCUGGAUCUAGUGGGUUACCUUA, the “pre-steady-state target cleavage rate” value is 0.0726 ± 0.012.
As to CUUAAGCUCUGGAUCGUACUGGGUUACCUAA, the “pre-steady-state target cleavage rate” value was determined as 0.00558 ± 0.0047.
For the sequence CUUAAGCUCUGGAUCUACUGGGUUACGAUA, the “pre-steady-state target cleavage rate” value turned out to be 0.0629 ± 0.012.
In the case of CUUAUCCACUGGAUCUUCUGGGUUACCUAA it was 0.0694 ± 0.012; in that of CUUAAGGUCUGGAUCUUGAGGGUUACCUAA, 0.00395 ± 0.0035; in that of CUUAUCCCCUGGAUCUACUGGGUUACCUAA, 0.137 ± 0.019.
In the case of CUUAUCCUCUGGAUCCACUGGGUUACCUAA it was 0.0964 ± 0.022.
Consider CUUAAGGUCUGGAUCAACUGGGUUUCCUAA, for which the “pre-steady-state target cleavage rate” value was 0.0239 ± 0.01.
In the case of CUUAAGCUCUCGAUCUACUGGGUUACGUAA it was 0.045 ± 0.015; in that of CUUAAGCUCUGGAUCUACUGGGUUUCCUAA, 0.107 ± 0.025; in that of CUUAAGGACUGGAUCUACUGGGUGUACCUAA, 0.0181 ± 0.012.
